# Laboratory results: the supplement of paper PMC8728848
# Some of the results follow.
# B1: CFEM-PPm (Pichia pastoris), F2QPV1 (protein)
# chain: AVATPPACLLACAAEVVKESSDCDALNNIQCICENEGSAIHACLESTCPDGLSSTALQSFEDVCE
# Key:
# Experiment in all cases: glycan array binding signal (z-score within array); higher = stronger binding
# Conditions in all cases: glycan notation: IUPAC condensed, linker removed
# [1] = target: Gal(b1-4)GlcNAc(b1-6)Gal(b1-4)GlcNAc
# Method in brief: (§1)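 Glycan array binding is given as a within-array Z-score, which can be read as non-binding when negative. The arrays, 3228 of them, came from the Consortium for Functional Glycomics database and were retained only where the protein sequence was available. Z-scores were averaged across arrays of the same protein sequence at different concentrations or buffers and across linkers.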
# [2] = target: Gal(b1-4)GlcNAc(b1-6)GalNAc
# Method in brief: as §1
# [3] = target: Gal(b1-4)GlcNAc(b1-6)[Gal(b1-3)]GalNAc
# Method in brief: as §1
# [4] = target: Gal(b1-4)GlcNAc(b1-6)[Gal(b1-4)GlcNAc(b1-3)]GalNAc
# Method in brief: as §1
# [5] = target: Gal(b1-4)GlcNAc6P
# Method in brief: as §1
# [6] = target: Gal(b1-6)Gal
# Method in brief: as §1
# [7] = target: Gal3S(b1-3)GalNAc
# Method in brief: as §1
# [8] = target: Gal3S(b1-3)GlcNAc
# Method in brief: as §1
# [9] = target: Gal3S(b1-3)[Fuc(a1-4)]GlcNAc
# Method in brief: as §1
# [10] = target: Gal3S(b1-4)Glc
# Method in brief: as §1
# [11] = target: Gal3S(b1-4)Glc6S
# Method in brief: as §1
# [12] = target: Gal3S(b1-4)GlcNAc
# Method in brief: as §1
# [13] = target: Gal3S(b1-4)[Fuc(a1-3)]Glc6S
# Method in brief: as §1
# [14] = target: Gal3S(b1-4)[Fuc(a1-3)]GlcNAc
# Method in brief: as §1
# [15] = target: Gal3S(b1-4)[Fuc(a1-3)]GlcNAc6S
# Method in brief: as §1
# [16] = target: Gal3S4S(b1-4)GlcNAc
# Method in brief: as §1
# [17] = target: Gal3S6S(b1-4)GlcNAc
# Method in brief: as §1
# [18] = target: Gal3S6S(b1-4)GlcNAc6S
# Method in brief: as §1
# [19] = target: Gal4S(b1-4)GlcNAc
# Method in brief: as §1
# [20] = target: Gal4S6S(b1-4)GlcNAc
# Method in brief: as §1
# [21] = target: Gal6P(b1-4)GlcNAc
# Method in brief: as §1
# [22] = target: Gal6S(b1-3)GlcNAc
# Method in brief: as §1
# [23] = target: Gal6S(b1-3)GlcNAc6S
# Method in brief: as §1
binder,measurement,setting,value
B1,glycan array binding signal (z-score),[1],0.25
same,glycan array binding signal (z-score),[2],0.216
same,glycan array binding signal (z-score),[3],1.67
same,glycan array binding signal (z-score),[4],0.029
same,glycan array binding signal (z-score),[5],-0.302
same,glycan array binding signal (z-score),[6],0.461
same,glycan array binding signal (z-score),[7],-0.17
same,glycan array binding signal (z-score),[8],-0.06
same,glycan array binding signal (z-score),[9],-0.262
same,glycan array binding signal (z-score),[10],-0.207
same,glycan array binding signal (z-score),[11],-0.073
same,glycan array binding signal (z-score),[12],-0.129
same,glycan array binding signal (z-score),[13],0.602
same,glycan array binding signal (z-score),[14],-0.202
same,glycan array binding signal (z-score),[15],-0.065
same,glycan array binding signal (z-score),[16],-0.292
same,glycan array binding signal (z-score),[17],-0.253
same,glycan array binding signal (z-score),[18],-0.033
same,glycan array binding signal (z-score),[19],-0.296
same,glycan array binding signal (z-score),[20],-0.256
same,glycan array binding signal (z-score),[21],-0.341
same,glycan array binding signal (z-score),[22],-0.06
same,glycan array binding signal (z-score),[23],-0.081
